Reference: PubChem BioAssay AID686971 (National Center for Advancing Translational Sciences (NCATS), 2013)
Screen size: about 360,000 compounds; about 7,500 (2.1%) were called active. Inconclusive means that the source gave no clear call. Such entries were picked first, then a sample of the others. Calls come from the whole dose curve; as a rule, active = well fitted cell-killing curve with a large enough effect; inconclusive = small, poorly fitted or top-dose-only effect, or effect the other way, or another doubt; inactive = no such curve, though single readings can be large or run the other way. Potencies of inconclusive entries are left out as doubtful fits.

test: qHTS for induction of synthetic lethality in tumor cells producing 2HG: qHTS for the HT-1080-IDH1KD cell line; settings: HT-1080 IDH1 knockdown viability, ATP luminescence, 48 h; activity, negative = toxicity: at 46.1 µM (top of the series) unless noted;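 for activity, negative = toxicity: 0% = DMSO wells and -100% = cell-free medium wells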
Summary of the method: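 Knockdown cells (IDH1KD HT-1080) received compounds 2 h after plating at 750 cells/well and were kept 48 h at 37 °C in 5% FBS RPMI. A CellTiter-Glo luminescence read gave % activity for curve fitting.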
Potency is the fitted concentration of half-maximal effect; tags give direction and shape of the fitted curve.

Compound | activity, negative = toxicity | Potency
Cc1ccc(CCc2nnc(SCC(=O)Nc3cc(Cl)ccc3Cl)n2-c2ccccc2)o1 | inactive: -20% | 
NC(N)=NC(=O)Cc1c(Cl)cccc1Cl | inconclusive: 6.1% | 
CCNC(=O)C1(C)CCCN1C(=O)c1cc(C)on1 (stereo unspecified) | inactive: 14.3% | 
CCCCN(C(C)=O)c1ccc2c(c1)C1CC2CCN1C(=O)OCc1ccccc1 (stereo unspecified) | inactive: -24.4% | 
CCOc1ccc2nc(SC3CC(=O)N(c4ccccc4)C3=O)sc2c1 (stereo unspecified) |  | inconclusive [cytotoxic, single point]
CCC1=NN(C(=O)c2ccc([N+](=O)[O-])cc2)C(O)(c2ccccc2)C1 (stereo unspecified) |  | inconclusive [cytotoxic, partial curve, poor fit]
COC(=O)N1CCCCC1c1cc(C(=O)Nc2ccc3c(c2)OCO3)no1 (stereo unspecified) | inactive: 2.63% | 
COc1ccc(C(=O)/C=C/c2ccccc2)c(O)c1 | inactive: -22.9% | 
Cc1cccc(Cn2c(=O)n(-c3ccc(CC(=O)NCc4ccco4)cc3)c(=O)c3sccc32)c1 |  | inconclusive [cytotoxic, single point]
Cc1c(C(=O)OCc2nc3ccsc3c(=O)[nH]2)oc2ccccc12 | inactive: -3.55% | 
CCN(CC(=O)NCc1cccs1)C(=O)c1ccc(NS(=O)(=O)c2ccc(C(C)=O)cc2)cc1 | inactive: -0.518% | 
CCCCNC(=O)C1(C)CCN1Cc1ccc(C#N)cc1 (stereo unspecified) |  | inconclusive [cytotoxic, single point]
CC(C)[C@@H]1CC[C@@H](C)c2c(-c3ccccc3)n[nH]c21 |  | inconclusive [cytotoxic, partial curve]
O=C(Cc1ccc(Cl)cc1)Nc1cccc(-c2nnc(-c3ccco3)o2)c1 |  | inconclusive [cytotoxic, partial curve]
CC(C)COc1ccc(CN=C(N)N=C(N)N)cc1Cl |  | inconclusive [cytotoxic, partial curve]
Cc1ccccc1-c1cc2nc(Nc3ccc(F)cc3)n(C)c(=O)c2s1 |  | inconclusive [cytotoxic, single point]
COc1cc(/C=C(/C#N)C(=O)Nc2ccc(C)cc2)ccc1Oc1nc(Cl)ncc1F |  | inconclusive [cytotoxic, single point]
CS(=O)(=O)c1nc(S(=O)(=O)c2ccc(Cl)cc2)c(NCCCn2ccnc2)s1 | inactive: -3.69% | 

Compound | activity, negative = toxicity | Potency
COc1ccc(CN2CCn3ncc(C(=O)Nc4cc(C)cc(C)c4)c3C2=O)cc1 |  | inconclusive [cytotoxic, single point]
COC(=O)c1ccc2c(=O)n(Cc3ccc(C(=O)NCCCN4CCC(C)CC4)cc3)c(=S)[nH]c2c1 |  | inconclusive [cytotoxic, single point]
COCc1cc(C)n(CC(=O)Nc2cc(C)cc(C)c2)c(=O)c1C#N | inactive: 0.551% | 
CC(=O)C1=C(c2ccc(Br)cc2)C(=O)c2ccccc2C1=O |  | active: 13 µM
Cc1cc(OCc2cc(C(=O)N(C)CCCN3CCOCC3)no2)cc(C)c1Cl |  | inconclusive [cytotoxic, single point]
Cc1cccc(NC(=O)C(=O)NNC(=O)c2ccc(C(C)(C)C)cc2)c1 |  | active: 8.2 µM
Cc1noc(C)c1COC(=O)c1cnc(Cl)c(Cl)c1 |  | inconclusive [cytotoxic, single point]
CCOC(=O)/C=c1\s/c(=C\c2c(OCC)ccc3ccccc23)c(=O)n1CC(=O)NCC1CCCO1 (stereo unspecified) |  | inconclusive [cytotoxic, single point]
COc1ccc(CCC(=O)OCC(=O)Nc2ccc(OC)c(OC)c2)cc1OC | inactive: 13% | 
CC(C(=O)O)n1c(-c2ccn[nH]2)n[nH]c1=S (stereo unspecified) | inactive: 8.97% | 
Cc1nc2ccccn2c1-c1csc(Nc2ccc(C(=O)O)cc2)n1 |  | active: 3.26 µM
COC(=O)CNC(=O)c1cn(CC(C)C)c(=O)c2cc(OC)c(OC)cc12 | inactive: 5.41% | 
N#Cc1ccc(OCC(=O)N2CCN(S(=O)(=O)c3ccc(Cl)s3)CC2)cc1 | inactive: -11.2% | 
O=C(c1cc(COc2ccc3ncccc3c2)on1)N1CCC[C@H]1CO | inactive: -21.6% | 
CCc1ccc2oc(C(=O)N3CCN(c4ccccc4OC)CC3)cc(=O)c2c1 |  | active: 13 µM
Cc1cc(C(=O)COC(=O)C(C)NC(N)=O)c(C)n1Cc1ccco1 (stereo unspecified) | inactive: -2% | 
O=S1(=O)N[C@@H](Cc2ccccc2)COc2cccc(N3CCN(Cc4ccccc4F)CC3)c21 |  | inconclusive [cytotoxic, single point]
O=[N+]([O-])c1cc(S(=O)(=O)N2CCCCCC2)ccc1F |  | inconclusive [cytotoxic, single point]
